From PubChem BioAssay (NCI)
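Interpolation was linear, between the two tested concentrations surrounding the appropriate level; five concentrations were tested over 48 hours in 96-well plates. GI50 marks 50% less growth.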 Certain results were filed several times, with different values. The list is limited to them. The source may hold further records. A record mostly stands for its own series of concentrations, not given here; some values may only mark the edge of a range.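 Definition used: TGI = concentration required for complete inhibition of growth.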

Legend:
Assay in all cases: NCI tumour cell line growth inhibition, 48 h
NCI-H226 lung = system: NCI-H226 lung
ACHN renal = system: ACHN renal
KM20L2 colon = system: KM20L2 colon
UO-31 renal = system: UO-31 renal
SF-539 CNS = system: SF-539 CNS
786-0 renal = system: 786-0 renal
SNB-75 CNS = system: SNB-75 CNS
LOX IMVI melanoma = system: LOX IMVI melanoma
RPMI-8226 leukemia = system: RPMI-8226 leukemia
SNB-19 CNS = system: SNB-19 CNS
HOP-62 NSCLC = system: HOP-62 NSCLC
NCI/ADR-RES ovarian = system: NCI/ADR-RES ovarian
U251 CNS = system: U251 CNS
P388 leukemia = system: P388 leukemia
SR leukemia = system: SR leukemia
MOLT-4 leukemia = system: MOLT-4 leukemia
OVCAR-5 ovarian = system: OVCAR-5 ovarian
SF-295 CNS = system: SF-295 CNS

SMILES	TGI (NCI-H226 lung)	TGI (ACHN renal)	TGI (KM20L2 colon)	TGI (UO-31 renal)	TGI (SF-539 CNS)	TGI (786-0 renal)	TGI (SNB-75 CNS)	TGI (LOX IMVI melanoma)	TGI (RPMI-8226 leukemia)	TGI (SNB-19 CNS)	TGI (HOP-62 NSCLC)	TGI (NCI/ADR-RES ovarian)	TGI (U251 CNS)	TGI (P388 leukemia)	TGI (SR leukemia)	TGI (MOLT-4 leukemia)	TGI (OVCAR-5 ovarian)	TGI (SF-295 CNS)	GI50 (LOX IMVI melanoma)
COc1cccc2c1C(=N)c1c(O)c3c(c(O)c1C2=O)C[C@@](O)(C(C)=O)C[C@@H]3OC1CC(N)C(O)C(C)O1 (stereo not given in full)	4.99, 712, 884, 125 nM	1.41 µM and 14.6 µM	0.65 nM, 5.15 µM, 6.51 µM	9.32 nM, 30.8 µM, 3.15 µM	59.4 nM [1 test] and 1.13 µM [mean of 4 tests] and 1.56 µM [mean of 5 tests]	545 nM and 10.2 µM	79.8 nM [1 test] and 2.57 µM [mean of 3 tests] and 1.37 µM [mean of 5 tests]	9.15 nM, 1.35 µM, 1.92 µM	320 nM [1 test] and 1.05 µM [mean of 3 tests] and 3.75 µM [mean of 5 tests]	9.75 nM, 4.31 µM, 3.23 µM, 2.17 µM	634 nM, 338 nM, 10.9 µM	0.424 nM and 21.8 µM	0.372 nM, 8.45 nM, 2.77 µM, 675 nM, 114 nM	0.646 nM and 655 nM	8.67 nM and 125 nM	64.5 nM [mean of 4 tests] and 7.49 nM, 257 nM [mean of 5 tests]	0.55 nM, 4.74 µM, 2.66 µM, 2.05 µM	0.541 nM, 1.84 µM, 821 nM, 11.5 µM	
C[CH2][Ge]1([CH2]C)[CH2]CC2(CCN(CCCN(C)C)C2)C[CH2]1								3.45 µM [mean of 3 tests] and 316 nM [mean of 4 tests]											1.83 µM [mean of 3 tests] and 38.1 nM [mean of 4 tests]
